# The list shows a part of the results.
# Test system: T1, C. trachomatis L2/434/Bu expressing GFP (CTL2-GFP)
# T1 construct: L2/434/Bu GFP intracellular growth in HeLa cells
# Design: species or system HeLa; C. trachomatis total inclusion area by high-content imaging, normalised to DMSO
# Details: total inclusion area; 28.5 h, 10 µM; inhibitor
# Summary of the method: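 Bulk GFP and resorufin signals were read first. Wells were then fixed, stained with Hoechst and imaged to detect GFP inclusions and host nuclei. MICs followed the previously described calculation.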
row,Compound,% of control remaining
1,O=C(Cc1ccccc1F)NCc1nnc(-c2cccs2)o1 [CBK284632],102.621
2,O=C(/C=C/c1ccc2c(c1)OCO2)Nc1ccc(S(=O)(=O)Nc2cnc3ccccc3n2)cc1 [CBK265445],84.4026
3,COC(=O)c1cnc(Sc2ccc(Cl)cc2)nc1C(F)(F)F [CBK009299],0
4,CC(C)C(NS(=O)(=O)c1ccccc1)C(=O)Nc1ccccc1 (stereo not shown) [CBK270001],87.9551
5,Brc1ccc2nc(NCc3ccccn3)nc(-c3ccccc3)c2c1 [CBK266736],83.718
6,CCNC(=O)N1CC2(CCN(CCCCC3NC(=O)NC3=O)CC2)c2ccccc21 (stereo not shown) [CBK126707],94.7224
7,Cc1nc(CN2CCCC(NCc3cccc(C(N)=O)c3)C2)no1 (stereo not shown) [CBK304929],39.2833
8,Cc1c(C(=O)Nc2nccs2)nnn1-c1ccccc1 [CBK287766],84.8897
9,CC(=O)c1c(C)oc2c1cc(NS(=O)(=O)c1ccc(C(=O)O)cc1)c1ccccc12 [CBK299780],75.8632
10,O=C(C1=C(O)C(=O)N(CCCN2CCOCC2)C1c1ccccn1)c1ccccc1 (stereo not shown) [CBK266604],124.462
11,Cc1cc(Cl)c(OCCNCCN)c(Br)c1 [CBK265079],103.816
12,CCn1c(C)cc(C(=O)NC2CCN(c3ncccc3C#N)CC2)c1C [CBK306524],80.9175
13,c1ccc(CC2CCN(Cc3cccnc3)CC2)cc1 [CBK126381],93.3382
14,Cc1ncsc1CCOc1nccc(C(F)(F)F)n1 [CBK115798],84.5094
15,CCCSc1nc2c(c(=O)[nH]1)C(c1ccncc1)C1=C(CCCC1=O)N2 (stereo not shown) [CBK287606],104.14
16,COc1ccc(N(CC(=O)O)S(=O)(=O)c2ccccc2[N+](=O)[O-])c(OC)c1 [CBK262729],125.632
17,Cc1cc(C)c(OCCOCCN2CCN(C)CC2)c(Cl)c1 [CBK263744G],112.19
18,Cc1cnc(CNC(=O)Cn2nnc(-c3ccc(CN4CCC(C)CC4)cc3)n2)cn1 [CBK137067C],118.5
19,O=S(=O)(Nc1nnn[nH]1)c1ccc(F)cc1 [CBK050473],89.1288
20,Cc1ccc(-c2csc(C3CN4CCCC4CO3)n2)s1 (stereo not shown) [CBK304113],76.6002

row,Compound,% of control remaining
1,Nc1nc(SCC(=O)NCc2ccco2)n[nH]1 [CBK266572],111.971
2,O=C(OCCC1SC(NC2CC3C=CC2C3)=NC1=O)c1ccc(Cl)c([N+](=O)[O-])c1 (stereo not shown) [CBK200060T],36.5242
3,COc1cccc(C(=O)NC[C@H]2CC[C@H](c3cc(C(N)=O)c4ccccc4n3)CC2)c1OC [CBK285919],104.031
4,CS(=O)(=O)Nc1ccc2[nH]ccc2c1 [CBK062728],81.3114
5,CCCNC(=O)COc1ccc(CC)cc1 [CBK058199],40.823
6,CC(=O)NC(c1ccccn1)C1CCN(Cc2cccc(F)c2)CC1 (stereo not shown) [CBK285461],84.7776
7,CC(=O)c1ccc(NC(=O)Nc2nnc(CCN3CCCC3)s2)cc1 [CBK174990],34.7768
8,O=C(OCc1ccccc1)N1CCC2(CC1)CN(c1ccc([N+](=O)[O-])cn1)CCO2 [CBK161111T],74.6487
9,COc1ccc(/C=C2/SC(=O)N(CCNC3=NS(=O)(=O)c4ccccc43)C2=O)cc1 [CBK265545],82.6876
10,O=C1NCCN1CCOc1nccnc1-c1ccsc1 [CBK106766],97.179
11,C/C(=N\Nc1nnc2c(n1)[nH]c1ccccc12)c1ccccn1 [CBK262054],1.05
12,O=C(O)CCCC(=O)NC(Cc1ccccc1)C(=O)Nc1ccc([N+](=O)[O-])cc1 (stereo not shown) [CBK299806],111.82
13,O=C(O)c1cc(S(=O)(=O)Nc2ccccc2)ccc1O [CBK109969],75.3983
14,COC1C(O)C(CO)OC1n1cc(C)c(=O)[nH]c1=O (stereo not shown) [CBK201251],126.19
15,CCCc1cc(C(=O)N[C@@H]2CCOC[C@H]2Oc2ccc(CO)cc2)cs1 [CBK306700],53.1333
16,CCN(CC)CCCNC(=O)N1CCCCC1CO (stereo not shown) [CBK155982],78.2325
17,COc1ccc(NC(=O)CSc2nc3c(N)ncnc3[nH]2)cc1 [CBK218441],107.446
18,CN(Cc1ccccc1)Cc1c(C2CCNCC2)[nH]c2ncccc12 [CBK285083],68.2766
19,COc1ccc2[nH]cc(CCNC(=O)c3ccc(-c4cccc(N(C)C)c4)nc3N(C)C(C)=O)c2c1 [CBK076589],112.842
20,Cc1cc(N2CCOC3(CCN(C(=O)c4ccc5ccccc5c4)CC3)C2)nc(N)n1 [CBK161125A],84.7738

# Source: article PMC12040169 (PLOS Biology, 2025)
